We go through 42 compounds from ChEMBL document CHEMBL4888484, “Replenishing the malaria drug discovery pipeline: Screening and hit evaluation of the MMV Hit Generation Library 1 (HGL1) against asexual blood stage Plasmodium falciparum ,using a nano luciferase reporter read-out” (2022).

Among all 150,000 compounds or so, about 540 (0.36%) showed an effect of 50% or more. This is one part of the list.

The test system of the assay is Plasmodium falciparum. In words: Primary screen in NF54 nanoGlo assay, in single point, at 2uM, 72h; a lower Z score goes with more inhibition. To be noted: timepoint 72 hour. The assay is classed as functional, Erythrocyte.
Consider `Cc1oc2ccn(Cc3ccc(F)cc3)c(=O)c2c1C(=O)N1CCN(c2ccccn2)CC1`, for which the % Inhibition – broadly, the relative decrease from the control value, in per cent – is recorded as 5% and the Z score is reported as -0.75.

Regarding `CCCn1nc(-c2cc(C)sc2C)cc1C(=O)NCc1ccccc1`, the “% Inhibition” value is -12% and the Z score is on record as 1.13.

Regarding `CCOc1ccc(C(=O)N2CCN(c3cnn4c(C5CC5)nnc4c3)CC2)cc1`, the “% Inhibition” value is listed as -5% and the Z score came to 0.95.

With `O=C1COc2ccc(Cl)cc2N1Cc1nc(-c2ccc(S(=O)(=O)N3CCCCC3)cc2)no1`, the “% Inhibition” value was -5% and the Z score is on record as 0.75.

In the case of `Nc1nc(N[C@H]2CCCC[C@@H]2c2ccccc2)c2cn[nH]c2n1`, the “% Inhibition” value is given as -7% and the Z score turned out to be 0.98.

`O=C(c1csc(CN(Cc2cccc(C(F)(F)F)c2)Cc2ccccc2F)n1)N1CCN(c2cccc(C(F)(F)F)c2)CC1`: the “% Inhibition” value is given as -13% and the Z score is on record as 1.17.

As for `COc1cccc(C(=O)Nc2c(-c3cccs3)n[nH]c2C)c1`, the “% Inhibition” value was -8% and the Z score was 1.26.

In the case of `COc1ccccc1S(=O)(=O)N1CCC(NC(=O)c2ccc(C)o2)CC1`, the “% Inhibition” value is reported as -3% and the Z score is 0.45.

Turning to `COCCn1cncc1CNc1ncnc2c1Cc1ccccc1OC2`, the “% Inhibition” value was -7% and the Z score came out at 1.26.

With `Cc1noc(C)c1C(=O)O[C@@H](C)C(=O)N1CCc2ccccc2C1`, the “% Inhibition” value is recorded as -4% and the Z score is reported as 0.59.

Take `Cc1noc(C)c1C(=O)N1CCC[C@H](Cc2nc(-c3cnccn3)no2)C1`: the “% Inhibition” value is on record as 11% and the Z score was -1.45.

For `C[C@]1(NC(=O)Nc2cccc3[nH]c(=O)ccc23)CCOC1`, the “% Inhibition” value was determined as 2% and the Z score was -0.31.

Regarding `CCn1c(-c2ccccc2F)nc2cc(NC(C)=O)cc(C(=O)NCCc3cscn3)c21`, the “% Inhibition” value is -8% and the Z score is 1.06.

For the compound `CN(CCNC(=O)c1ccc2cnn(Cc3ccc(Cl)cc3)c2c1)C1CCCCC1`, the “% Inhibition” value is recorded as -9% and the Z score is 0.92.

`CC(C)CN(CC(=O)N(Cc1ccco1)C[C@H]1CCCO1)C(=O)Cc1ccc(F)cc1`: the “% Inhibition” value is recorded as -7% and the Z score amounted to 1.07.

Regarding `CC(C)c1noc(CN(C)C(=O)CCS(C)(=O)=O)n1`, the “% Inhibition” value came out at 4% and the Z score is reported as -0.44.

With `N#Cc1ccccc1Oc1ccc(C(=O)N2CC[C@@H](O)C2)cc1Cl`, the “% Inhibition” value was -11% and the Z score worked out at 1.45.

As to `COCCN1C(=O)[C@@H]2CC[C@H]1CN(C(=O)c1ccc(OC)c(F)c1F)C2`, the “% Inhibition” value stood at 3% and the Z score is on record as -0.63.

As for `COC(CNC(=O)c1cccnc1)OC`, the “% Inhibition” value is -5% and the Z score is 0.62.

Consider `C[C@@H](c1nccs1)N1CCN(S(=O)(=O)c2cccc(F)c2F)CC1`, for which the “% Inhibition” value was found to be 5% and the Z score is -0.57.

Regarding `COC[C@@H](O)CNC(=O)Nc1cccc2c1OC(C)(C)CC2`, the “% Inhibition” value is on record as -10% and the Z score is 1.15.

`CC[C@@](C)(C(=O)Nc1c(C)cccc1C)N(C(=O)Cn1nnnc1N)c1ccccc1`: the “% Inhibition” value worked out at 5% and the Z score is listed as -0.58.

As for `CCOC(=O)NCC(=O)N1CCC(C)CC1`, the “% Inhibition” value is -15% and the Z score came out at 2.76.

For the compound `O=C(Nc1ccc(Cl)c(Cl)c1)C1=NCCN1`, the “% Inhibition” value amounted to 2% and the Z score was -0.32.

Consider `O=C(CCc1nc2ccccc2[nH]1)N1CCC[C@H](O)C1`, for which the “% Inhibition” value is on record as 4% and the Z score is given as -0.81.

Consider `O=C(NCc1cccc(Cl)c1O)c1nc(C2CC2)no1`, for which the “% Inhibition” value is -7% and the Z score amounted to 1.34.

On to `COC(=O)N1CCC(C(C)NC(=O)C2CC23CCOCC3)CC1` (centres undefined), for which the “% Inhibition” value is recorded as 3% and the Z score is -0.46.

In the case of `O=C(c1oc(C2CC2)nc1C(F)F)N1Cc2ccccc2CO1`, the “% Inhibition” value is given as 0% and the Z score is reported as -0.06.

In the case of `COc1ccc([C@@H]2CCCN2C(=O)c2scnc2C)cc1OC`, the “% Inhibition” value is -9% and the Z score was 0.83.

Turning to `C=C(C)CNC(=O)Nc1ccc(NC(=O)C(C)C)cc1`, the “% Inhibition” value is on record as -8% and the Z score was found to be 1.58.

Consider `CCn1cc(NC(=O)C2CCN(c3ccccn3)CC2)cn1`, for which the “% Inhibition” value is given as -12% and the Z score was found to be 1.09.

Regarding `CCCc1cc(NC(=O)COCCOC)n[nH]1`, the “% Inhibition” value is -5% and the Z score worked out at 0.64.

On to `COc1ccc(-n2nc(C(=O)NC3CCCCC3)cc2-c2cccnc2)cc1`, for which the “% Inhibition” value is recorded as -11% and the Z score is 1.47.

Turning to `CC(C)n1ccc(CNC(=O)N2CC[C@H](CC3CC3)C2)n1`, the “% Inhibition” value is listed as -6% and the Z score is listed as 0.97.

Regarding `CCn1nc(C)c(CN2C[C@@H]3CC[C@H]2CN(C(=O)c2ccncc2)C3)c1C`, the “% Inhibition” value is -11% and the Z score is reported as 0.99.

For `Cc1nc(NC(=O)c2ccc(OC3CCOCC3)nc2)sc1C(=O)N(C)C`, the “% Inhibition” value was -1% and the Z score worked out at 0.15.

As to `Cc1c(C(=O)NCc2ccccc2)sc2ncnc(N3CCCCCC3)c12`, the “% Inhibition” value is -14% and the Z score was determined as 1.27.

As for `CC1CN(C(=O)CN2C(=O)NC(C)(c3ccc(C(C)(C)C)cc3)C2=O)CC(C)O1` (centres undefined), the “% Inhibition” value turned out to be 5% and the Z score was -0.9.

Turning to `C1=CCC(C2OCC(CN3CCCCC3)O2)CC1` (centres undefined), the “% Inhibition” value is -7% and the Z score is recorded as 0.96.

Take `N#Cc1ccc(NC2CC2)c(NC(=O)[C@H]2CC23CCCC3)c1`: the “% Inhibition” value is -16% and the Z score is on record as 2.17.

For the compound `C[C@H]1CN(C(=O)c2ccc(-c3ccccc3F)o2)CCS1(=O)=O`, the “% Inhibition” value worked out at 5% and the Z score is listed as -0.74.

In the case of `O=C(C[C@@H]1CCN2C[C@@H]1/C=C\COc1ccccc1CN(CC1CC1)CC2=O)NCCN1CCCC1`, the “% Inhibition” value is on record as -3% and the Z score stood at 0.51.
